# Assay results published in the supplement of paper PMC10037445.
# The full ranking holds about 2,900 compounds; the median of “NF-kB SEAP reporter activity, fold change vs agonist alone” is about 0.99, and the highest 2% start at about 2.6. The list shows a part of the results.
# Experiments:
# RAW-Dual [1] = test: NF-kB SEAP reporter activity, fold change vs agonist alone; cytotoxicity flag (confluency mask): not cytotoxic; higher = enhanced NF-kB activity
# Procedure, shortened: (§1)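 Cytotoxic wells were those whose IncuCyte confluency was below 70% of agonist controls in both mask sets. The cells were RAW-Dual macrophages at 50,000 cells/well in DMEM on 384-well plates, dosed with 50 nL of library stock by pin tool, stimulated with a PRR agonist 1 h later, and kept at 37 °C, 5% CO2 for 20 hours. IRF and NF-κB reporter activity, as fold change over agonist-alone wells, came from supernatant read by QuantiLuc luminescence and QuantiBlue absorbance, respectively.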
# RAW-Dual [2] = test: NF-kB SEAP reporter activity, fold change vs agonist alone; higher = enhanced NF-kB activity
# Procedure, shortened: as §1
# RAW-Dual [3] = test: NF-kB SEAP reporter activity, fold change vs agonist alone; cytotoxicity flag (confluency mask): cytotoxic (confluency <70% of control); higher = enhanced NF-kB activity
# Procedure, shortened: as §1
# [4] = agonist: ODN 1826 (TLR9) 0.5 ug/mL
# [5] = agonist: Pam2CSK4 (TLR2/6) 0.1 ug/mL
# [6] = agonist: Pam3CSK4 (TLR2/1) 0.1 ug/mL
# [7] = library stock concentration (final ~1000-fold dilution): 10 mM, cytotoxicity flag (confluency mask): not cytotoxic, agonist: Imiquimod (TLR7) […]
# [8] = library stock concentration (final ~1000-fold dilution): 10 mM, cytotoxicity flag (confluency mask): not cytotoxic, agonist: MPLA (TLR4) […]
smiles,measurement,setting,value
CCC(C)CC(C)CCCCCCCCC(=O)NC1CC(O)C(NCCN)NC(=O)C2C(O)CCN2C(=O)C(C(O)CCN)NC(=O)C(C(O)C(O)c2ccc(O)cc2)NC(=O)C2CC(O)CN2C(=O)C(C(C)O)NC1=O (configuration not stated) (library stock concentration (final ~1000-fold dilution): 10 mM water),NF-kB SEAP reporter activity,RAW-Dual [1]; agonist: LPS (TLR4) 0.1 ug/mL,1.29
same,NF-kB SEAP reporter activity,RAW-Dual [1]; [4],1.08
same,NF-kB SEAP reporter activity,RAW-Dual [1]; [5],1.09
same,NF-kB SEAP reporter activity,RAW-Dual [1]; [6],0.968
CCC(C)CC(C)CCCCCCCCC(=O)NC1CC(O)C(NCCN)NC(=O)C2C(O)CCN2C(=O)C(C(O)CCN)NC(=O)C(C(O)C(O)c2ccc(O)cc2)NC(=O)C2CC(O)CN2C(=O)C(C(C)O)NC1=O (configuration not stated),NF-kB SEAP reporter activity,"RAW-Dual [2]; library stock concentration (final ~1000-fold dilution): 10 mM water, cytotoxicity flag (confluency mask): not cytotoxic, agonist: Imiquimod (TLR7) […]",0.901
same,NF-kB SEAP reporter activity,"RAW-Dual [2]; library stock concentration (final ~1000-fold dilution): 10 mM water, cytotoxicity flag (confluency mask): not cytotoxic, agonist: MPLA (TLR4) […]",0.866
CC(=O)ON=C1C(c2c(O)[nH]c3cc(Br)ccc23)=Nc2ccccc21,NF-kB SEAP reporter activity,RAW-Dual [2]; [7],1.07
same,NF-kB SEAP reporter activity,RAW-Dual [2]; [8],1.48
CC(=O)ON=C1C(c2c(O)[nH]c3cc(Br)ccc23)=Nc2ccccc21 (library stock concentration (final ~1000-fold dilution): 10 mM),NF-kB SEAP reporter activity,RAW-Dual [1]; agonist: LPS (TLR4) 0.1 ug/mL,3.28
same,NF-kB SEAP reporter activity,RAW-Dual [1]; [4],1.19
same,NF-kB SEAP reporter activity,RAW-Dual [1]; [5],1.55
same,NF-kB SEAP reporter activity,RAW-Dual [1]; [6],1.41
CC(C)Cc1ccc(C(C)C(=O)O)cc1 (configuration not stated) (library stock concentration (final ~1000-fold dilution): 10 mM),NF-kB SEAP reporter activity,RAW-Dual [1]; agonist: LPS (TLR4) 0.1 ug/mL,0.987
same,NF-kB SEAP reporter activity,RAW-Dual [1]; [4],0.995
same,NF-kB SEAP reporter activity,RAW-Dual [1]; [5],1.08
same,NF-kB SEAP reporter activity,RAW-Dual [1]; [6],1.15
CC(C)Cc1ccc(C(C)C(=O)O)cc1 (configuration not stated),NF-kB SEAP reporter activity,RAW-Dual [2]; [7],0.911
same,NF-kB SEAP reporter activity,RAW-Dual [2]; [8],1.06
CN1CC2c3ccccc3Oc3ccc(Cl)cc3C2C1.O=C(O)/C=C\C(=O)O (configuration not stated) (library stock concentration (final ~1000-fold dilution): 10 mM),NF-kB SEAP reporter activity,RAW-Dual [3]; agonist: LPS (TLR4) 0.1 ug/mL,1.4
same,NF-kB SEAP reporter activity,RAW-Dual [3]; [4],0.37
same,NF-kB SEAP reporter activity,RAW-Dual [3]; [5],0.801
same,NF-kB SEAP reporter activity,RAW-Dual [3]; [6],0.93
CN1CC2c3ccccc3Oc3ccc(Cl)cc3C2C1.O=C(O)/C=C\C(=O)O (configuration not stated),NF-kB SEAP reporter activity,"RAW-Dual [2]; library stock concentration (final ~1000-fold dilution): 10 mM, cytotoxicity flag (confluency mask): cytotoxic (confluency <70% of control), agonist: Imiquimod (TLR7) […]",1.84
same,NF-kB SEAP reporter activity,"RAW-Dual [2]; library stock concentration (final ~1000-fold dilution): 10 mM, cytotoxicity flag (confluency mask): cytotoxic (confluency <70% of control), agonist: MPLA (TLR4) […]",1.38
COc1ccnc(CS(=O)c2nc3ccc(OC(F)F)cc3[nH]2)c1OC (configuration not stated) (library stock concentration (final ~1000-fold dilution): 10 mM),NF-kB SEAP reporter activity,RAW-Dual [1]; agonist: LPS (TLR4) 0.1 ug/mL,0.823
same,NF-kB SEAP reporter activity,RAW-Dual [1]; [4],0.903
same,NF-kB SEAP reporter activity,RAW-Dual [1]; [5],0.686
same,NF-kB SEAP reporter activity,RAW-Dual [1]; [6],0.908
COc1ccnc(CS(=O)c2nc3ccc(OC(F)F)cc3[nH]2)c1OC (configuration not stated),NF-kB SEAP reporter activity,RAW-Dual [2]; [7],0.935
same,NF-kB SEAP reporter activity,RAW-Dual [2]; [8],0.878
COc1cccc(C=NCCN=Cc2cccc(OC)c2[O-])c1[O-].[Cl-].[Mn+2] (library stock concentration (final ~1000-fold dilution): 10 mM),NF-kB SEAP reporter activity,RAW-Dual [1]; agonist: LPS (TLR4) 0.1 ug/mL,0.702
same,NF-kB SEAP reporter activity,RAW-Dual [1]; [4],0.185
same,NF-kB SEAP reporter activity,RAW-Dual [1]; [5],0.791
same,NF-kB SEAP reporter activity,RAW-Dual [1]; [6],0.479
COc1cccc(C=NCCN=Cc2cccc(OC)c2[O-])c1[O-].[Cl-].[Mn+2],NF-kB SEAP reporter activity,RAW-Dual [2]; [7],0.261
same,NF-kB SEAP reporter activity,RAW-Dual [2]; [8],0.39
Cc1cc(C(=O)C2=C(O)C(=O)N(CCCN3CCOCC3)C2c2ccncc2)ccc1OCc1ccccc1 (configuration not stated) (library stock concentration (final ~1000-fold dilution): 10 mM),NF-kB SEAP reporter activity,RAW-Dual [1]; agonist: LPS (TLR4) 0.1 ug/mL,1.02
same,NF-kB SEAP reporter activity,RAW-Dual [1]; [4],0.972
same,NF-kB SEAP reporter activity,RAW-Dual [1]; [5],1.06
same,NF-kB SEAP reporter activity,RAW-Dual [1]; [6],0.825
Cc1cc(C(=O)C2=C(O)C(=O)N(CCCN3CCOCC3)C2c2ccncc2)ccc1OCc1ccccc1 (configuration not stated),NF-kB SEAP reporter activity,RAW-Dual [2]; [7],0.934
same,NF-kB SEAP reporter activity,RAW-Dual [2]; [8],1.01
